# Measured values taken from the supplement of paper PMC4604168 (melanoma cell lines).
# The list shows a part of the results. Repeats are few or missing, and single values can be far off.
# Test system: COLO829
# Assay: cell count relative to DMSO control; melanoma cells; higher = more viable cells
# Details: library dose: standard library concentration; 72 h
# 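Note: cells treated in 1,536-well plates, then fixed and DAPI-stained, with nuclei counted from automated high-throughput microscope images.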
row,SMILES,cell count [%]
1,"Cc1cc(Nc2cc(N3CCN(C)CC3)nc(/C=C/c3ccccc3)n2)n[nH]1 + COc1cc(N2CCC(N3CCN(C)CC3)CC2)ccc1Nc1ncc(Cl)c(Nc2ccccc2S(=O)(=O)C(C)C)n1 [NVP-TAE684] (first compound 0.2 µM, partner dose 0.4 µM)",78.2
2,"Cc1cn(-c2cc(NC(=O)c3ccc(C)c(Nc4nccc(-c5cccnc5)n4)c3)cc(C(F)(F)F)c2)cn1 [nilotinib] + COc1ccc(-c2ccc3c(N4CCOCC4)nc(N4C[C@@H](C)O[C@@H](C)C4)nc3n2)cc1CO [KU0063794] (first compound 1 µM, partner dose 0.1 µM)",96.3
3,"COc1ccc(C2=N[C@@H](c3ccc(Cl)cc3)[C@@H](c3ccc(Cl)cc3)N2C(=O)N2CCNC(=O)C2)c(OC(C)C)c1 [Nutlin-3] + Nc1nc(F)nc2c1ncn2[C@@H]1O[C@H](CO)[C@@H](O)[C@@H]1O [fludarabine] (first compound 0.5 µM, partner dose 1 µM)",75.7
4,"Cn1c(=O)n(-c2ccc(C(C)(C)C#N)cc2)c2c3cc(-c4cnc5ccccc5c4)ccc3ncc21 + CN(C)S(=O)(=O)c1ccc2c(c1)/C(=C/c1cc3c([nH]1)CCCC3)C(=O)N2 [SU6656] (first compound 0.02 µM, partner dose 2 µM)",90.2
5,"COc1ccc(C2=N[C@@H](c3ccc(Cl)cc3)[C@@H](c3ccc(Cl)cc3)N2C(=O)N2CCNC(=O)C2)c(OC(C)C)c1 [Nutlin-3] + C[C@]1(O)C[C@@H](c2nc(-c3ccc4ccc(-c5ccccc5)nc4c3)c3c(N)nccn32)C1 [OSI906] (first compound 0.5 µM, partner dose 2 µM)",55.2
